According to paper PMC4336329 (PLoS ONE, 2015):
About 14,000 (4.5%) of roughly 310,000 compounds showed an effect of 50% or more. Effects have a minus sign here. The list shows a part of the results.

Biological target: human ether-à-go-go-related gene (hERG) potassium channel (human, UniProt Q12809)
Test: primary screen, population patch clamp on CHO cells stably expressing hERG
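Also: peak tail current of the secondary pulse compared with the same well before compound.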

Sequence of human ether-à-go-go-related gene (hERG) potassium channel (Q12809 whole entry, looked up): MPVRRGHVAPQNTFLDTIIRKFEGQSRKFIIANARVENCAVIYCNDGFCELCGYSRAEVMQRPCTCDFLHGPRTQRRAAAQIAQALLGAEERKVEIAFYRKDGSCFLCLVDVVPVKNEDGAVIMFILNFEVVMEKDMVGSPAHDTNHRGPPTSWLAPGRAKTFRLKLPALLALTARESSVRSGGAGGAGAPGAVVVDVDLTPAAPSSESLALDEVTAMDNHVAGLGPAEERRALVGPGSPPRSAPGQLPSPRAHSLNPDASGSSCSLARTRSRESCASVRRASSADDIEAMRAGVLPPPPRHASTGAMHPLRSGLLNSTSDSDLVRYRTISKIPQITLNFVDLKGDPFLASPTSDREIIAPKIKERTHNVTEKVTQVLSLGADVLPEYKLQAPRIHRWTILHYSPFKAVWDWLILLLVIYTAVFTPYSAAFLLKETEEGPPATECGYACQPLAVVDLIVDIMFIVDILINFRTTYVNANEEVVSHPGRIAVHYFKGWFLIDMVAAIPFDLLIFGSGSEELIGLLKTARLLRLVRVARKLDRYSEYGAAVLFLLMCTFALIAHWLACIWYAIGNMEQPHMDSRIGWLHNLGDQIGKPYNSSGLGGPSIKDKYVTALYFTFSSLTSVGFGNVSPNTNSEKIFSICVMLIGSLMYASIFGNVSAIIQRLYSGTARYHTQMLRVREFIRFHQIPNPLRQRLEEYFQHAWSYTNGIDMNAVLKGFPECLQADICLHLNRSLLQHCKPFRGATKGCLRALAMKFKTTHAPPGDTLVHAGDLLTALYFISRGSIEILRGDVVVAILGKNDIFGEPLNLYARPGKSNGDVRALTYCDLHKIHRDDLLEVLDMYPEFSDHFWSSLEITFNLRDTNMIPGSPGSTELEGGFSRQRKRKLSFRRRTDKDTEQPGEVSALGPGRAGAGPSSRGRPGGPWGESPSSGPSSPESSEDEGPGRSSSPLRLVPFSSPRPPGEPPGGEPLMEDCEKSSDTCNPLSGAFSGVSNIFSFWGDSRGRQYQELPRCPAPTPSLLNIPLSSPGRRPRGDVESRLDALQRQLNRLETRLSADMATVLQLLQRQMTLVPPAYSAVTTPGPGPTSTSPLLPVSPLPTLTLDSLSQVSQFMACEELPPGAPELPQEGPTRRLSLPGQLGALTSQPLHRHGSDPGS

Row | SMILES | hERG current change (%, negative = inhibition) at 10uM [%]
1 | Cc1cccc(-n2cc(CN3CCN(c4ccccn4)CC3)c(-c3cccc(F)c3)n2)c1 | 14.6
2 | CC(=O)c1cc2c(=O)c3cc(C)ccc3oc2nc1C | -7.48
3 | COCCNC(=S)N(CCc1c(C)[nH]c2ccccc12)Cc1cccnc1 | -8.41
4 | OCC[C@@H]1C[C@H](O)[C@@H](O)[C@]2(CCCCO2)O1 | 21.2
5 | O=C(Nc1cccc(S(=O)(=O)NC2=NCCCCC2)c1)c1cc(-c2ccccc2)nc2ccccc12 | -10.8
6 | CCOC(=O)c1c(C)[nH]c(C(=O)N2CCC(C(=O)OCC)CC2)c1C | 14.5
7 | CCCCOc1ccc(CSC2=NCCN2)cc1[N+](=O)[O-].Cl | -68.7
8 | O=C(O)Cn1ccc2ccccc21 | 24.6
9 | CCc1ccc(N2CC(C(=O)Nc3cc(C)ccc3F)CC2=O)cc1 (centres unmarked) | -0.952
10 | O=C(NCCOc1ccc(Cl)cc1)C1CC(=O)N(c2ccc3c(c2)OCCO3)C1 (centres unmarked) | -27.9
11 | CC(C)Nc1nc(-c2ccccc2)nnc1-c1ccccc1 | -15.5
12 | Cc1ccc(NC(=O)c2cc3ccccc3o2)cc1 | 6.1
13 | O=C(O)C(=O)O.OCCNCCCCOc1cccc(Br)c1 | -12.4
14 | CCOc1ccc(NS(=O)(=O)c2coc(C(N)=O)c2)cc1 | 11
15 | COC(=O)NCC(C)OC(=O)Nc1ccc(Cl)cc1 (centres unmarked) | 11.3
16 | CC1CCCC(C)N1C(=O)COC(=O)Cn1cnc2c1c(=O)n(C)c(=O)n2C (centres unmarked) | 11.9
17 | O=C(Cn1cc(/C=C\[N+](=O)[O-])c2ccccc21)Nc1ccccc1 | 4.86
18 | COc1ccc2[nH]c3c(c2c1)CCN1C(=O)N([C@@H](C)C(=O)NCC2CCCO2)C(=O)[C@]31C (some centres unmarked) | -6.78
19 | CC1(C)CC(=O)C2=C(C1)NC(Nc1nc3ccccc3o1)=NC2c1ccccn1 (centres unmarked) | -25
20 | CCN(C(=O)COC(=O)CNS(=O)(=O)c1ccc2ccccc2c1)C1CCCCC1 | -18.2
21 | CCCc1c(NC(=O)Nc2ccc(F)cc2)cnn1-c1ccccc1 | 8.19
22 | O=C(CCN1C(=O)C2CC=CCC2C1=O)NC1CCCCC1 (centres unmarked) | -9.5
23 | Cc1cc(=O)[nH]c2c1c(=O)[nH]n2C1CC(C)N(C)CC1C (centres unmarked) | 7.39

Row | SMILES | hERG current change (%, negative = inhibition) at 10uM [%]
24 | O=C(NCCc1ccccn1)C1CC(=O)N(Cc2ccccc2Cl)C1 (centres unmarked) | -1.93
25 | CCOC(=O)c1oc2ccc(S(=O)(=O)Nc3ccc4c(c3)n(C)c(=O)n4C)cc2c1C | -11.4
26 | CC(=O)NC(O)C(=O)c1ccccc1 (centres unmarked) | 26
27 | Cc1cc(C2C(C#N)=C(N)Oc3n[nH]c(C)c32)c(C)s1 (centres unmarked) | 21
28 | CCOc1ccccc1CNC(=O)CCC(=O)N1Cc2ccccc2Oc2ncccc21 | -3.62
29 | CC(=O)Nc1cccc(S(C)(=O)=O)c1 | -5.87
30 | Cc1ccc(S(=O)(=O)N2CCN(C(=O)COC(=O)c3ccc(Br)o3)CC2)c(C)c1 | -10.3
31 | Cc1cccc2sc(NS(C)(=O)=O)nc12 | 19.1
32 | CC1(C)CC2CC(C)(CN2S(=O)(=O)c2cccc(N)c2)C1 (centres unmarked) | 11.8
33 | Cc1csc(SCC(=O)Nc2cc(S(=O)(=O)N3CCCC3)ccc2Cl)n1 | -24.4
34 | COc1ccc(/C=C/C(=O)c2ccccc2O)cc1CN1CCOCC1 | -17.7
35 | Cc1nnc2n(-c3ccccc3)c(=O)c3c4c(sc3n12)COC(C)(C)C4 | -6.75
36 | C=CCN1CCN(C(=O)c2ccc3c(c2)OCO3)CC1 | 24.1
37 | O=C(COC(=O)c1cccnc1Nc1ccccc1F)NC1CC1 | -0.164
38 | Cc1ccc(Oc2ncccc2/C=N/OCc2ccc(Cl)c(Cl)c2)cc1 | 16.9
39 | CCOC(=O)c1ccc2[nH]c(-c3ccc(S(=O)(=O)F)cc3)cc(=O)c2c1 | 12.6
40 | C=CCn1c(-c2cccc([N+](=O)[O-])c2)n[nH]c1=S | 15.1
41 | O=C(Cc1ccc([N+](=O)[O-])cc1)N1CCc2ccccc2C1 | -17.7
42 | Cc1noc(C)c1COc1ccccc1C(=O)NNC(=O)c1ccccc1F | -36.9
43 | O=C(CC12CC3CC(CC(C3)C1)C2)NCCN1CCOCC1 | -4.84
44 | Cc1cc(Cn2nc(C(=O)NCc3cccs3)cc2-c2ccccc2)on1 | -40.8
45 | Cc1cc(SCC(=O)c2cccc([N+](=O)[O-])c2)nc(=O)[nH]1 | 12.4
46 | O=C(CCSCc1ccccc1F)N1CCN(c2ccccn2)CC1 | -27.2

Row | SMILES | hERG current change (%, negative = inhibition) at 10uM [%]
47 | Cl.O=C(NN1C(=O)CSC1=S)c1cccnc1 | 13
48 | C/C(=N/NC(=O)c1cccs1)c1cccs1 | 11.2
49 | Cn1c(C(=O)O)c(CC(=O)Nc2ccccc2F)c2ccccc21 | 0.623
50 | Cc1cccc(NC(=O)c2cccnc2)c1C | 15.1
51 | CCOC(=O)Cc1csc(NC(=O)CCC(=O)O)n1 | 23.1
52 | COc1ccc(NC(=O)CN(C)C(=O)Cc2c[nH]c3ccccc23)cc1 | -5.97
53 | COC(C(=O)N1CCC(CCC(=O)Nc2ccccc2)CC1)c1ccccc1 (centres unmarked) | -6.28
54 | COc1ccc([N+](=O)[O-])cc1NC(=S)NC(NC(=O)Cc1ccc(OC)c(OC)c1)C(Cl)(Cl)Cl (centres unmarked) | 0.195
55 | C/C(=N\Nc1ccc([N+](=O)[O-])cc1)c1ccc(N2CCOCC2)cc1 | 4.46
56 | COc1cccc(-c2n[nH]c3c2CCC3)c1 | -5.81
57 | O=S(=O)(NCc1cccnc1)c1ccc2ccccc2c1 | 8.09
58 | COc1cc2cc(C[C@H](C)O)oc(=O)c2cc1OC | 16.7
59 | Cc1cccc(C(=O)NNC(=O)C2CC2)c1 | -5.33
60 | O=C(c1cc(Cl)nc2ccccc12)N(Cc1nnc(-c2ccccc2Cl)o1)C1CC1 | -21.1
61 | CC1Cc2ccccc2N1Cc1cc(=O)n2ccsc2n1 (centres unmarked) | 10.6
62 | O=Cc1cc2ccccc2nc1SCc1ccc(Cl)cc1 | -1.55
63 | O=C(CSc1nnc(COc2ccccc2)o1)NCCc1ccccc1 | -1.41
64 | O=C(O)C(=O)/C(=C\c1cccc(Cl)c1)c1ccc2ccccc2n1 | 13.8
65 | CN(/N=C/c1ccccc1O)C(=S)c1ccccc1 | -3.8
66 | O=C(Nc1cccc2ncccc12)c1ccc(-c2ccc(Cl)cc2Cl)o1 | -7.06
67 | CC(C)(C)n1nnnc1C(c1ccncc1)N1CCCCCC1 (centres unmarked) | -8.52
68 | CCCn1c(N)c(C(=O)CSc2nnc(C3CC3)n2Cc2ccccc2)c(=O)n(C)c1=O | -11.3
69 | COc1ccc(C(=O)O)cc1S(=O)(=O)Nc1ccccc1-c1ccccc1 | 5.67

Row | SMILES | hERG current change (%, negative = inhibition) at 10uM [%]
70 | NC(=O)c1nsc(C(=O)N(c2cccc(F)c2)C(C(=O)NCC2CCCO2)c2cccs2)c1N (centres unmarked) | 6.66
71 | CCOC(=O)Nc1ccc(S(=O)(=O)N(C)C(C)C)cc1 | -10.6
72 | Cc1ccc(S(=O)(=O)N2CCC(C(=O)NCCN3CCCCCC3)CC2)cc1 | -18.3
73 | CC(=O)Oc1cccc(N2C(=O)C3C4C=CC(C4=C(C)C)C3C2=O)c1 (centres unmarked) | 15.1
74 | Cc1nc2ccccc2c2nc(NC(=O)C(F)(F)F)nn12 | -13.5
75 | O=C(C1CC(=O)N(c2ccc3c(c2)OCCO3)C1)N1CCN(c2ccccc2O)CC1 (centres unmarked) | -6.34
76 | COc1ccc(OC)c(NC(=O)C(Sc2ccccc2)c2ccccc2)c1 (centres unmarked) | -12.5
77 | COc1ccccc1C/C(N)=N/OC(=O)COc1cccc(C)c1C | 4.05
78 | Cc1ccc(C(=O)CCc2ccc(N)cc2)cc1 | -6.3
79 | CC(NC(=O)NC(=O)c1ccc(Cl)cc1Cl)C1CC1 (centres unmarked) | 0.177
80 | COc1ccc([N+](=O)[O-])cc1NC(=O)Cc1c(Cl)cccc1Cl | 25.1
81 | Cc1ccc2[nH]nc(C(=O)N3CCCC(C(=O)c4ccc(Cl)cc4)C3)c2c1 (centres unmarked) | 22.4
82 | Nc1nc(C23CC4CCC(CC(C4)C2)C3)cs1 | 1.51
83 | CCOc1ccc(N(CC(=O)NC2CCCCC2)S(=O)(=O)c2ccccc2)cc1 | 15.1
84 | Cc1ccc(C(=O)CSc2nnnn2C(C)C)c(C)c1 | -3.38
85 | COC(=O)c1sc(C(=O)OC)c(C(=O)OC)c1C(=O)OC | -1.17
86 | CC12CCC(C(=O)NCc3cccnc3)(OC1=O)C2(C)C (centres unmarked) | 6.67
87 | O=S(=O)(c1ccccc1)c1ccccc1/C=N\O | -7.44
88 | CC1SC(c2ccc(Cl)cc2Cl)NC1=O (centres unmarked) | 11.4
89 | Cc1cc(C)c(NC(=O)C2CCCN2CCOC(=O)c2cccc([N+](=O)[O-])c2)c(C)c1.Cl (centres unmarked) | -63.2
90 | Cc1ccccc1OCCn1c(S(=O)(=O)O)nc2c(N)ncnc21 | 24.7
91 | COc1ccc(CCNc2oc(-c3ccco3)nc2C#N)cc1 | -2.82
92 | N#C/C(=C\c1coc2ccc(O)cc2c1=O)C(=O)Nc1nc2ccccc2s1 | -6.05
